According to PubChem BioAssay AID504339 (National Center for Advancing Translational Sciences (NCATS), 2011):
In all, about 390,000 compounds went through this assay and about 17,000 (4.4%) were called active. The inconclusive results got no clear call from the source; some entries with a clear call stand among them for comparison. Calls follow the shape of the dose curve; as a rule, active = well fitted inhibition curve with a large enough effect; inconclusive = small, poorly fitted or top-dose-only effect; inactive = no such curve, though single readings can be large or run the other way. A potency beside an inconclusive call is a rough fit, not a confirmed value.

molecular target: Lysine-specific demethylase 4A (Homo sapiens) (UniProt O75164); assay: qHTS Assay for Inhibitors of JMJD2A-Tudor Domain; conditions: AlphaScreen JMJD2A-Tudor / H3K4me3 peptide binding; series mostly up to 114 µM; activity change, negative = inhibition: at the top concentration; also: nearly all actives have a fitted effect of over 50% in size
% is scaled to controls: 0 for no effect and ±100 for the full control effect; potency is read from the fitted curve at half-maximal effect; tags tell the direction and shape of the fitted curve.

Chain of UniProt O75164 (O75164 whole entry, looked up, the tested form may be a part): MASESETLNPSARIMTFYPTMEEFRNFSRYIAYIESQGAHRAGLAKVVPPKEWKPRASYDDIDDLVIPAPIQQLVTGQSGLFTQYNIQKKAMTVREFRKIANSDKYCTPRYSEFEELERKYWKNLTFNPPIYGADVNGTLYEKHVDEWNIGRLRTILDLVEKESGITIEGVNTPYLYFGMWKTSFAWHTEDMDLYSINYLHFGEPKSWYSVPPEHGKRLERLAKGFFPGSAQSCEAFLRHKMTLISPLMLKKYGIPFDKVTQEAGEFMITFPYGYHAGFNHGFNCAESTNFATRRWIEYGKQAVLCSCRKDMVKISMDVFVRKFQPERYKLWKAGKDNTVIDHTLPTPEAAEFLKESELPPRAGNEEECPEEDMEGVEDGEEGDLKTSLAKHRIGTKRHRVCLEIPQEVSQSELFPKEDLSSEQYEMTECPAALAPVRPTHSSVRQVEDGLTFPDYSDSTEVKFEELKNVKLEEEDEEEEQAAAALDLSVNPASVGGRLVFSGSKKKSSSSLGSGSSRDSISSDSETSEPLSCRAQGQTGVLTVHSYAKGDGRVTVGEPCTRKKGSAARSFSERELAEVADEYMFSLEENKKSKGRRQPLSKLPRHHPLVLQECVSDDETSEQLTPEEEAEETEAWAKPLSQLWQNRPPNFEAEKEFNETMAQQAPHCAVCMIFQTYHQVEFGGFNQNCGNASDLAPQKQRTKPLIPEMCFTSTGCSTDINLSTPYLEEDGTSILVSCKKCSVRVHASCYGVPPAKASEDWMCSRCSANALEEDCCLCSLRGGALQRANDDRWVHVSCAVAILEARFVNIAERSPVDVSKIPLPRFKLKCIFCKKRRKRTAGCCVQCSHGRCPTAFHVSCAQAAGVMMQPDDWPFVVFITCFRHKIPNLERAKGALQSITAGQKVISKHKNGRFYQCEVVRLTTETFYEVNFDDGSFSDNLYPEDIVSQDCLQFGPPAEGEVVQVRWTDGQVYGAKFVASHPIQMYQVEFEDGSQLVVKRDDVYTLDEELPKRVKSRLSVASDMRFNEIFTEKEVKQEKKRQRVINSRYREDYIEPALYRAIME

Potency, active:
Nc1nc(C(=O)N2CCOCC2)nn1S(=O)(=O)c1ccc(Cl)cc1 14.1 µM, O=C(O)CC(NC(=O)C12CC3CC(CC(C3)C1)C2)c1cc([N+](=O)[O-])ccc1Cl (stereo not drawn) 56.2 µM, CCN(CC)Cc1cc(Nc2c3ccccc3nc3c4ccccc4n(C)c23)cc(CN(CC)CC)c1O 44.7 µM, CCN(c1ccc(NC(=O)COC(=O)CCc2nc3ccccc3n2-c2ccccc2)cc1)C(C)C 11.2 µM, Cc1ccc(OCCOCCNC(C)C)c(Br)c1 10 µM, Cc1ccc(S(=O)(=O)N2CCN(C(=O)CN3CCN(c4ccc(O)cc4)CC3)CC2)cc1 44.7 µM

Potency, inconclusive:
CSc1cccc(-c2nnc(NC(=O)c3cccc(N4C(=O)CCC4=O)c3)o2)c1 100 µM [inhibitor, single point], COc1ccc(-c2n[nH]c(=S)n2-c2ccccc2C)cc1 3.16 µM [inhibitor, full curve, poor fit], CCCC1C(=O)Nc2ccccc2N1C(=O)c1ccc(C(C)(C)C)cc1 (stereo not drawn) 44.7 µM [inhibitor, partial curve], CCN1CCCc2cc(CN(CCN3CCOCC3)C(=S)Nc3ccc(C)cc3)ccc21 50.1 µM [inhibitor, single point], O=C(Nc1ccccc1)c1nnsc1S(=O)c1ccc(Cl)cc1 (stereo not drawn) 79.4 µM [inhibitor, partial curve], Cc1c(C(=O)NCCCN2CCCCC2)oc2ccc3c(c12)C(O)CC1(CCCCC1)O3 (stereo not drawn) 44.7 µM [inhibitor, partial curve], Oc1ccc(N=Cc2cc(Br)c(N3CCOCC3)o2)cc1 50.1 µM [inhibitor, partial curve], CCOc1ccc(CCNC(=O)COC(=O)c2cc([N+](=O)[O-])ccc2N2CCOCC2)cc1OCC 70.8 µM [inhibitor, single point], COc1cc2c(cc1OC)C(C)N(C(=O)c1ccc(Cl)c(S(=O)(=O)N3CCCCC3)c1)CC2 (stereo not drawn) 79.4 µM [inhibitor, partial curve], CC(=O)c1cccc(S(=O)(=O)NCC(c2ccco2)N2CCCCC2)c1 (stereo not drawn) 79.4 µM [inhibitor, partial curve], COc1ccc(C(=O)Oc2cccc3cccnc23)cc1[N+](=O)[O-] 44.7 µM [inhibitor, partial curve, poor fit], CCNC(=S)NCc1ccc2[nH]c(C)cc2c1 79.4 µM [inhibitor, single point], CN(CC(=O)Nc1ccc(Cl)cc1)c1ccc(S(=O)(=O)N2CCCCC2)cc1[N+](=O)[O-] 12.6 µM [inhibitor, partial curve], O=C1[C@@H]2Cc3c([nH]c4ccccc34)C(c3ccccc3)N2C(=O)CN1C1CCN(Cc2ccccc2)CC1 (stereo partly drawn) 3.16 µM [inhibitor, single point], CCn1c(/C=C/c2cc[n+](C)cc2)nc2ccccc21 25.1 µM [inhibitor, partial curve], COc1ccc(-n2c(C)nc(=O)c(-c3ccccc3)c2C)cc1 79.4 µM [inhibitor, single point], Cc1cc(C(=O)N/N=C\c2cc(C(C)(C)C)c(O)c(C(C)(C)C)c2)n[nH]1 63.1 µM [inhibitor, partial curve, poor fit], CCOC(=O)N1CCN(C(=O)c2ccc([N+](=O)[O-])cc2Cl)CC1 39.8 µM [inhibitor, single point], Cc1ccccc1S(=O)(=O)NC1OC(=O)C(Cl)=C1Cl (stereo not drawn) 89.1 µM [inhibitor, partial curve], COc1ccccc1Nc1nc(NCCCN(C)C)nc(N)c1[N+](=O)[O-] 44.7 µM [inhibitor, partial curve], CN(CC(=O)Nc1ccc(N2CCOCC2)cc1)C(=O)CSc1ccc(F)cc1 25.1 µM [inhibitor, partial curve], C/C(=N\NC(=O)Cc1cccn1C)c1ccc([N+](=O)[O-])cc1 56.2 µM [inhibitor, partial curve]

Activity change, negative = inhibition, inactive:
Nc1ccc([N+](=O)[O-])cc1C(=O)NNC(=O)c1ccco1 -8.05%, COc1ccc(C2NC(=O)c3ccccc3N2)cc1COc1ccc(NC(C)=O)cc1 (stereo not drawn) -12.9%, O=c1cc(-c2ccc(O)cc2)oc2c1ccc1ccccc12 -32%, C/C(=N\NC(=O)c1c[nH]c2ccccc12)c1ccc(C)o1 -17.9%, Cc1ccc(Cl)cc1NC(=O)CN1CCN(C(=O)C2CCCO2)CC1 (stereo not drawn) -22.8%, Cc1ccc(CNC(=O)CCc2c(C)nc3nc(C)nn3c2C)cc1 -12.5%, Cc1ccc(Cl)cc1NC(=O)Cn1c(=O)n(Cc2ccccc2)c(=O)c2oc3ccccc3c21 -3.66%, COc1ccc(CCNC(=O)NCCc2c[nH]c3ccccc23)cc1OC -18.5%, CC(=O)OCC(=O)NCC(=O)c1c[nH]c2ccccc12 -18.3%, N#CC1=C(N)C2=CCCC[C@H]2[C@H](c2ccc(Br)cc2)C1(C#N)C#N -26.4%, C/C(N)=C(/C#N)C(=O)COC(=O)c1ccc(OCC2CCCO2)cc1 (stereo not drawn) -6.99%, COc1cccc(/C=C/C(=O)c2ccc(C)c([N+](=O)[O-])c2)c1 -11.5%, Cc1ccc(CCNS(=O)(=O)c2ccc3c(c2)CC(C)N3C(=O)C2CCC2)cc1 (stereo not drawn) -7.92%, Cc1ccc(C)c(Nc2nc(N)c3ccccc3n2)c1 -7.04%, Cc1cc(C)n2nc(SCC(N)=O)nc2n1 -32.6%, Cc1ccc(CNC(=O)CCn2cnc3ccccc3c2=O)cc1 -29.4%, CCCCn1cnc2c(SCc3ccc(Cl)cc3)nc(N)nc21 -13.1%, O=C(Nc1ccccc1F)c1ccc(CSc2ncccn2)cc1 1.37%, CCc1ccc(/C(C)=N/NC(=O)CNC(=O)/C=C/c2ccccc2OC)cc1 -9.29%, N#Cc1ccc(C(=O)N2CCN(c3ncccn3)CC2)cc1 -12.9%
